Test results: patent US20090202520A1 (PROMEDIOR, published 2009)

Target: T1, soluble recombinant FcγRIIA (H131 variant) (human, UniProt P12318 36-217)
T1 construct: also called FcγR2A; not shown: C-terminal poly-histidine tail of 6-10 histidines
T1 sequence: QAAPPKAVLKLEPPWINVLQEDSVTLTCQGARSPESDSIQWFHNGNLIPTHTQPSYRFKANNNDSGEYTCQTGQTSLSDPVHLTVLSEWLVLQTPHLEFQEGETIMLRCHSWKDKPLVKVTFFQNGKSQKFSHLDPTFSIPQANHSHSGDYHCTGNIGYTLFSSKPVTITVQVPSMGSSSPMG
Assay: SPR, comparison of SAP and CRP affinities

B1: serum amyloid P (SAP) (ligand)
chain: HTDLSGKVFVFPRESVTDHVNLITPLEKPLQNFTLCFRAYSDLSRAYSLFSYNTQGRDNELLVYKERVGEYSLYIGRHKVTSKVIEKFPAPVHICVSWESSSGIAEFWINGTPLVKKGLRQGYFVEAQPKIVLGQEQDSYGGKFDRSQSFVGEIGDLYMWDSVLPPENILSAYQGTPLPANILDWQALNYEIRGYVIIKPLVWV
notes: Pentamer of five non-covalently associated protomers; also called hSAP; human serum amyloid protein P
fold affinity of SAP over CRP for the same receptor: 1000 fold
